Assay results taken from PubChem BioAssay AID1347165 (National Center for Advancing Translational Sciences (NCATS), 2019).
About 5,700 (2.6%) of roughly 220,000 compounds were called active. The shares of active, inactive and inconclusive entries below differ from those in the screen. Calls follow the shape of the dose curve; as a rule, active = well fitted inhibition curve with a large enough effect; inconclusive = small, poorly fitted or top-dose-only effect; inactive = no such curve, though single readings can be large or run the other way. A potency beside an inconclusive call is a rough fit, not a confirmed value.

target: Lysine-specific demethylase 5B (Homo sapiens) (UniProt Q9UGL1); assay: Primary screen for KDM5B Histone Demethylases FDH-coupled qHTS; conditions: FDH-coupled NADH fluorescence (FDH is formaldehyde dehydrogenase); activity change, negative = inhibition: at 57.7 µM (top of the series) unless noted; also: nearly all actives have a fitted effect of over 70% in size; as to activity change, negative = inhibition: 0% is about no effect
UniProt Q9UGL1, sequence (Q9UGL1 whole entry, looked up): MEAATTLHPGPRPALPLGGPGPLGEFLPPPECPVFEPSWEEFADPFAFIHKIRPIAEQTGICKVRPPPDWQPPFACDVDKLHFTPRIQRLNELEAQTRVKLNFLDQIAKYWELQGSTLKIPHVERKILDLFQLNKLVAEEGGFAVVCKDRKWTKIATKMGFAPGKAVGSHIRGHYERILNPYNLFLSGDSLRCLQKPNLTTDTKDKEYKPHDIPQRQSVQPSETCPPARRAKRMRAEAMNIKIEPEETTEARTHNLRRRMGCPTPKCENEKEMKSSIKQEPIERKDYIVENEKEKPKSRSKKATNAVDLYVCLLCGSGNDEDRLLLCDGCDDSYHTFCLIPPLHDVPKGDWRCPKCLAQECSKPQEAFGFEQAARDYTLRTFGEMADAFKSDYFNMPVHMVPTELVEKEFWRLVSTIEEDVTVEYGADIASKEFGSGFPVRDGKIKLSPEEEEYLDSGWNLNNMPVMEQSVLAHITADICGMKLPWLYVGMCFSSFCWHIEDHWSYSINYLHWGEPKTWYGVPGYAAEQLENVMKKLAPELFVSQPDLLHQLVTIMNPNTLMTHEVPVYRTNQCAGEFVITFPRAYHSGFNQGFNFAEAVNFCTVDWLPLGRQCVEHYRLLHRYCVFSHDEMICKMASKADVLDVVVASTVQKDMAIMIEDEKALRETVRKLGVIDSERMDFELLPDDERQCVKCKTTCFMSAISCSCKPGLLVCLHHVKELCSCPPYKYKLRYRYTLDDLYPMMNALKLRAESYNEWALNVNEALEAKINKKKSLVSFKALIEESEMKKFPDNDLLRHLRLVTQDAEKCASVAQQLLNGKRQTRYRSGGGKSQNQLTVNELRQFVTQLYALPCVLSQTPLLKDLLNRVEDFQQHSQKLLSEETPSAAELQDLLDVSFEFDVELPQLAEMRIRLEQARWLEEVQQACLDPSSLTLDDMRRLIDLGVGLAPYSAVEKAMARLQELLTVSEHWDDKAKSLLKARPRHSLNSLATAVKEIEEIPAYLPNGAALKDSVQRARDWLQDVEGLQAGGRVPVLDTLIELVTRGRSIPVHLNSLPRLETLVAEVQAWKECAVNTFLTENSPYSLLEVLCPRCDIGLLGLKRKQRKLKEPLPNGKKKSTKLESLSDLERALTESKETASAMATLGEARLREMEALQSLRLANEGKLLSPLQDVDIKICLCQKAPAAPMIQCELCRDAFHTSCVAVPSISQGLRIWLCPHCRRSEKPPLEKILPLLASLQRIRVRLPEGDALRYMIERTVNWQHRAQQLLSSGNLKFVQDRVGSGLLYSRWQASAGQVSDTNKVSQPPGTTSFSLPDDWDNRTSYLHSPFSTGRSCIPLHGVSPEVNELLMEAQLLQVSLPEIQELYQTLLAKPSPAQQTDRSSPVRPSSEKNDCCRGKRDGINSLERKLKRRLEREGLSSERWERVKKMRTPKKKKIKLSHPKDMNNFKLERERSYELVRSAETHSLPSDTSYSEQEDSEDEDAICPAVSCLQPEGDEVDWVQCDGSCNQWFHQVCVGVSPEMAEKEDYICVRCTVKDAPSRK
Method in brief: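 Measured: NADH fluorescence change, 30 min, RT. System: KDM5BΔAP 200 nM final, H3K4me3 peptide, α-KG, Fe(II), ascorbate, NAD⁺ plus FDH, pH 7.5 HEPES. Compounds: titrated, 10 min pre-incubation with enzyme.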
Potency is read from the fitted curve at half-maximal effect; tags tell the direction and shape of the fitted curve.

SMILES | Potency | activity change, negative = inhibition
O=C(NCCCn1ccnc1)c1ccc(-c2ncc3cnc(-c4cccc(F)c4)cn23)cc1 | active: 17.8 µM | –
Cc1cc(NC(=O)c2cc(-c3ccccn3)nc3c(Cl)cccc23)no1 | inconclusive: 15.8 µM [inhibitor, partial curve, poor fit] | –
CCc1ccc(NS(=O)(=O)c2ccc(NC(C)=O)c(OC)c2)cc1 | inactive | –
CCOc1ccc(N(C(=O)c2ccc(OC)cc2)S(=O)(=O)c2ccc3c(c2)n(C)c(=O)n3C)cc1 | inconclusive: 5.01 µM [inhibitor, full curve, poor fit] | –
COc1ccccc1COc1ccc2c(C)c(CCC(=O)O)c(=O)oc2c1C | inconclusive: 25.1 µM [inhibitor, partial curve, poor fit] | –
CCOCCn1c(N2CCN(C)CC2)nc2c1c(=O)[nH]c(=O)n2C | inactive | –
O=C(NNC1=Nc2ccccc2SC1)c1ccccc1F | inconclusive: 39.8 µM [inhibitor, single point] | –
CN1C[C@@H]2CCCN3CCC[C@@H]([C@H]23)[C@H]1CCCC(=O)NCCN1CCOCC1 | inactive | –
CC(C)c1ccc(-c2noc(SCC(=O)N(C)c3ccc(F)cc3)n2)cc1 | – | inconclusive: -38.2% [inhibitor]
O=c1c2c(n(Cc3cccnc3)n1-c1ccccc1)CN(CC1CCOC1)CC2 (stereo not given) | inconclusive: 39.8 µM [inhibitor, single point] | –
CCOC(=O)c1cc(OC(=O)c2cccc(F)c2)n(-c2ccccc2)n1 | inconclusive: 7.08 µM [inhibitor, partial curve, poor fit] | –
Cn1c(SCc2ccc(F)cc2)nnc1-c1cc2ccccc2o1 | inactive | –
O=C(CCSc1nc(Cl)nc2nc[nH]c12)NCCc1ccc(O)cc1 | inactive | –
CC(=O)N1CCCc2ccc(NC(=O)c3ccc(C(F)(F)F)cc3)cc21 | inconclusive: 15.8 µM [inhibitor, partial curve, poor fit] | –
COc1ccc2c(c1)Cc1sc(NC(=O)c3ccc(Cl)cc3)nc1-2 | inconclusive: 12.6 µM [inhibitor, partial curve, poor fit] | –
CCc1ccc(OCc2nnc(SCc3c(F)cccc3Cl)n2CC(C)C)cc1 | inactive | –
Cn1nc(C(=O)N2CCN(Cc3cccc4ccccc34)CC2)c2ccccc2c1=O | inactive | –
CCCNC(=O)C(=O)c1c(-c2ccccc2)n(C)c2ccccc12 | inactive | –
COc1ccc(-c2coc3cc(OCCN4CCN(C)CC4)ccc3c2=O)cc1 | inactive | –
COc1ncccc1-c1cc2c(nc1-c1ccccc1)nc(C(=O)NCCN(C)C)n2C | active: 15.8 µM | –
O=C(/C=C/c1ccccc1Br)c1ccc(O)c(CCCl)c1 | inactive | –
COCC1CN(C2CCC2)CC12CCN(C(=O)c1cn(C)cn1)CC2 (stereo not given) | inconclusive: 28.2 µM [inhibitor, partial curve] | –
CC(C)C(NC(=O)c1ccccc1)c1nnc(SCC(=O)c2ccc(F)cc2)n1C (stereo not given) | inactive | –

SMILES | Potency | activity change, negative = inhibition
O=C(Cc1ccc(Cl)cc1)N1CCC(N2CC3CC(C2)[C@H]2CCCC(=O)N2C3)CC1 (stereo not given in full) | inconclusive: 17.8 µM [inhibitor, partial curve] | –
CC1CCCCN1CCNC(=O)C1CCN(c2nc3cccnc3s2)CC1 (stereo not given) | inactive | –
Cc1[nH]c2ccccc2c1C(c1ccc(O)cc1)c1c(C)[nH]c2ccccc12 | inconclusive: 25.1 µM [inhibitor, single point] | –
CC(=O)Nc1ccc(S(=O)(=O)C(C#N)c2nc3ccccc3nc2N2CCN(C)CC2)cc1 (stereo not given) | inconclusive: 20 µM [inhibitor, partial curve, poor fit] | –
CC(=O)N1CCC([C@@H]2CN(C3CCN(CC(C)C)CC3)C[C@H]2CO)CC1 | inconclusive: 12.6 µM [inhibitor, partial curve] | –
Cc1ccccc1-c1noc(-c2cc(C(C)C)[nH]n2)n1 | inconclusive: 39.8 µM [inhibitor, single point] | –
Cn1cc(-c2cnc3n[nH]c(-c4ccccc4)c3n2)cn1 | active: 35.5 µM | –
COc1ccc(C(=O)N2CCN(c3nnc4ccccn34)CC2)cc1OC | active: 25.1 µM | –
CC(C)C(=O)c1cc2c(cc1NC(=O)c1ccccc1F)OCCO2 | inconclusive: 3.98 µM [inhibitor, partial curve, poor fit] | –
Cc1cnn(C2(C(=O)O)CCN(C(=O)c3cnn4cccnc34)CC2)c1 | inconclusive: 17.8 µM [inhibitor, single point] | –
COn1c(=O)c(-c2ccc(F)cc2)[n+]([O-])c2ccccc21 | inconclusive: 28.2 µM [inhibitor, single point] | –
CN(C)C[C@@H]1CN(C2CCOCC2)C[C@H]1NS(=O)(=O)c1ccc(C#N)cc1 | inconclusive: 17.8 µM [inhibitor, partial curve, poor fit] | –
Cc1c(-c2ccccc2)n(C)c2ccccc12 | inconclusive: 20 µM [inhibitor, partial curve, poor fit] | –
COc1ccc(Cl)cc1NC(=O)c1c(NCc2cccs2)sc2c1CCCC2 | inconclusive: 25.1 µM [inhibitor, partial curve, poor fit] | –
N#CCc1ccccc1C(=O)OCC(=O)N1CCN(c2ccccc2)CC1 | inactive | –
Cc1cccc(-n2ncc(C(=O)Nc3ccc4c(c3)OCO4)c2C2CCN(C(=O)OC(C)(C)C)CC2)c1 | inconclusive: 31.6 µM [inhibitor, single point] | –
Cc1ccccc1C(=O)N1CCC(N2CCCCCC2=O)CC1 | active: 20 µM | –
Cc1ccc(S(=O)(=O)N(C)Cc2ccccc2)cc1C(=O)N1CCCCC1 | inactive | –
CN(C)c1ccc(NC(=O)CSC2=Nc3ccccc3C3=NC(CC(=O)NCc4ccc5c(c4)OCO5)C(=O)N23)cc1 (stereo not given) | inconclusive: 14.1 µM [inhibitor, partial curve, poor fit] | –
Oc1ccc(NCc2ccccc2OCc2ccccc2Cl)cc1 | inconclusive: 2.24 µM [inhibitor, full curve, poor fit] | –
O=C(Nc1c(NC2CCCC2)c2ccccc2oc1=O)NC1CCCCC1 | inactive | –
COc1ccc2nc(C)c(C(=O)NCCCC(N)=O)cc2c1 | inconclusive: 28.2 µM [inhibitor, single point] | –
